Measurements reported in PubChem BioAssay AID651582 (Sanford-Burnham Center for Chemical Genomics, 2012).
Values joined by “and” are separate entries in the source; they are usually repeats but may differ in a detail not shown here. Equal values may be shown once. The list shows a part of the results. These are further read-outs of the screen, such as a control signal, another cell line or another target. No call is given for them. Most of these compounds were active or inconclusive in the main read-out, so they are no random draw.

assay: inhibitors of triacylglycerol accumulation, primary screen, cell-based, uHTS, fluorescence, H9c2 (AID 651582); settings: H9c2 cells, Nile Red lipid (TAG) fluorescence; measured here:; at 12.5 µM; cells loaded with 200 µM oleic acid

Row | Compound | DAPI nuclei signal change (viability), lower = more cytotoxic
1 | O=C(O)c1ccc(N/N=C/c2ccc(-c3ccccc3Cl)o2)cc1 | 2.17%
2 | COC(=O)[C@@]1(Cc2ccccc2)[C@H]2C(=O)N(Cc3ccccc3)C(=O)[C@H]2[C@H]2CN=C(SCc3ccc(Cl)cc3)N21 | 9.45%
3 | CC(CC(=O)Nc1ccc2c(c1)c(=O)n(C)n2-c1ccc2ccccc2c1)C(F)(F)F (stereo not given) | -35.9%
4 | O=C(Nc1ccc(-c2csc(Nc3cccc(C(F)(F)F)c3)n2)cc1)c1ccccc1 | -4.93%
5 | CCOc1cc2[nH]c(=O)n(CCCCC(=O)N3CCCCCC3)c(=O)c2cc1OCC | -6.76%
6 | O=c1cc(N2CCN(c3ccccc3)CC2)[nH]c(=O)n1C1CCCCC1 | -22.3%
7 | CCN(C(=O)COC(=O)c1ccc([N+](=O)[O-])o1)c1cccc2ccccc12 | -49.6%
8 | CN(C)CC(C(=O)c1ccccc1)c1ccccc1 (stereo not given) | -38.4%
9 | Nc1nc(CCl)nc(N(c2ccccc2)c2ccccc2)n1 | -42.3%
10 | CCOC(=O)c1ccc(NC(=O)c2nc[nH]c2C(=O)NCCNC(=O)c2[nH]cnc2C(=O)Nc2ccc(C(=O)OCC)cc2)cc1 | 1.44%
11 | COc1cc2sc(-c3ccccc3OC)c(-c3ccc(OCCN4CCCCC4)cc3)c2cc1OC | 0.0807%
12 | CCOc1ccc(CCNC(=O)c2cc3sc(Cl)cc3n2C)cc1OCC | 1.72%
13 | Cc1cc(C)cc(C(=O)N2CC(=O)Nc3ccccc32)c1 | -28.4%
14 | COCCOC(=O)c1[nH]c2c(c1C)C(=O)CC(c1ccco1)C2 (stereo not given) | -44.1%
15 | Nc1c2ccccc2nc2ccccc12 | 24.4% and 2.96%
16 | Clc1cccc(-c2cc3nc4c(c(N5CCN(c6cnccn6)CC5)n3n2)CCCC4)c1 | 5.35%
17 | COC1C(CO)OC(n2c3c(Cl)cccc3c3c4c(c5c6cccc(Cl)c6[nH]c5c32)C(=O)NC4=O)C(O)C1O (stereo not given) | -49%
18 | c1ccc2c(c1)NC(c1ccncc1)n1c-2nc2ccccc21 (stereo not given) | -6.3%
19 | CO/N=C/C(=N\Nc1ccc(C)cc1)C(=O)c1ccc(OC)cc1 | -44.7%
20 | Cc1ccc(NC2=Nc3ccccc3N3C2=Nc2c(c(C)nn2-c2ccccc2)C3c2ccc(O)c(O)c2)cc1 (stereo not given) | 74.8%
21 | CCCCCCCCCCCCCCCC[n+]1cccc(C(=O)N(CC)CC)c1 | 2.52%
22 | Nc1nc(-c2ccccc2)cc(N2CCCCC2)n1 | -31.5%
23 | S=C(N/N=C/c1cccs1)NC1CC2CCC1C2 (stereo not given) | -0.213%

Row | Compound | DAPI nuclei signal change (viability), lower = more cytotoxic
24 | CCCCCC(=C/c1ccccc1)/C=N/Nc1ccc(S(=O)(=O)N2CCOCC2)cc1[N+](=O)[O-] | -15.1%
25 | COc1ccc(-c2nn(-c3ccccc3)cc2/C=C/C(=O)OCC(=O)Nc2ccccc2C#N)cc1 | -31.8%
26 | CCOc1ccc(CCNC(=O)CN2CCN(Cc3ccccc3F)C2=O)cc1OCC | -4.47%
27 | COc1cc(-c2nc(-c3ccc(NC(=O)c4ccc(Br)o4)cc3)no2)cc(OC)c1OC | 6.55%
28 | COc1ccccc1/C=C/C(=O)NCC(=O)N/N=C/c1cc(Br)ccc1OC | -16.4%
29 | COC(=O)[C@@]1(Cc2ccc(F)cc2)[C@H]2c3cc(C(=O)N4CCCC4)n(CCCNc4ncc(C(F)(F)F)cc4Cl)c3C[C@H]2CN1C(=O)c1ccccc1 | -6.08%
30 | Cc1ccc(-n2cc(CNCCCn3cccn3)c(-c3cccc(C)c3)n2)cc1 | -2.62%
31 | CCOC(=O)c1cc(CC)sc1NC(=O)c1cc(OC)c(OC)c(OC)c1 | 0.0743%
32 | COc1ccccc1-c1sc2cc3c(cc2c1-c1ccc(OCCN2CCCCC2)cc1)OCO3 | -0.797%
33 | COCCOC(=O)c1[nH]c2c(c1C)C(=O)CC(c1ccccc1)C2 (stereo not given) | -43.6%
34 | CNC(=O)c1ccc(-c2sc3nc(N4CCOCC4)c4c(c3c2N)CC(C)(C)OC4)o1 | 64.8%
35 | COc1ccc(-c2nc3ccc(Cl)cn3c2NC2CCCCC2)cc1SC1CCCCC1 | 60.8%
36 | Cc1c(C(=O)NCCC2=CCCCC2)oc2ccc(S(=O)(=O)N3CCC4(CC3)OCCO4)cc12 | -2.16%
37 | CCOc1ccc(N(CC(=O)Nc2ccccc2C)S(=O)(=O)c2c(C)noc2C)cc1 | -39.9%
38 | CCCCCCSc1cc(-c2nc3ccc(Cl)cn3c2NC2CCCCC2)ccc1OC | 92.5%
39 | Cc1ccc(-n2nc(C)c3c(C)c(CCC(=O)Nc4ccc(CN5CCCC5)cc4)c(C)nc32)cc1 | -16.3%
40 | CCOC(=O)c1cc(-c2ccccc2)sc1NC(=O)COC(=O)c1cccc(S(N)(=O)=O)c1 | -37.6%
41 | C=CCC[C@H](Cc1ccc(F)cc1)C(=O)OC[C@@H](Cc1c[nH]c2ccccc12)NC(=O)[C@H](CC=C)CC(=O)N(CCO)Cc1ccccc1 | -11.6%
42 | O=[N+]([O-])c1ccc(N/N=C\c2cccn2-c2ccccc2)nc1 | -22.9%
43 | COc1ccc(C2=C(C=Nc3c(C)n(C)n(-c4ccccc4)c3=O)C(c3ccccc3C)c3ccccc3O2)cc1OC (stereo not given) | -10.9%
44 | COc1cc(-c2nc3c(c(C)nn3-c3ccccc3)c3cc(OC)c(OC)cc23)ccc1O | 46.3%
45 | CN(Cc1ccccc1)C(=O)c1ccc(Nc2nc(C(N)Cc3ccccc3)cs2)nc1 (stereo not given) | 7.67%
